Test results as given in PubChem BioAssay AID588591 (National Center for Advancing Translational Sciences (NCATS), 2011).
The campaign covered roughly 390,000 compounds. About 4,700 (1.2%) were called active. Inconclusive results (about 4%) are left out. Calls follow the shape of the dose curve; as a rule, active = well fitted inhibition curve with a large enough effect; inconclusive = small, poorly fitted or top-dose-only effect, or another doubt; inactive = no such curve, though single readings can be large or run the other way. The list shows a part of the results, in another mix than the full data. Some compounds were tested as several samples or in several runs, with calls that do not always agree.

molecular target: DNA polymerase eta (Homo sapiens) (UniProt Q9Y253); experiment: qHTS for Inhibitors of Polymerase Eta; details: recombinant Pol eta, fluorescent DNA replication assay; series mostly up to 114 µM; activity change, negative = inhibition: at the top concentration
UniProt Q9Y253, sequence (Q9Y253 whole entry, looked up): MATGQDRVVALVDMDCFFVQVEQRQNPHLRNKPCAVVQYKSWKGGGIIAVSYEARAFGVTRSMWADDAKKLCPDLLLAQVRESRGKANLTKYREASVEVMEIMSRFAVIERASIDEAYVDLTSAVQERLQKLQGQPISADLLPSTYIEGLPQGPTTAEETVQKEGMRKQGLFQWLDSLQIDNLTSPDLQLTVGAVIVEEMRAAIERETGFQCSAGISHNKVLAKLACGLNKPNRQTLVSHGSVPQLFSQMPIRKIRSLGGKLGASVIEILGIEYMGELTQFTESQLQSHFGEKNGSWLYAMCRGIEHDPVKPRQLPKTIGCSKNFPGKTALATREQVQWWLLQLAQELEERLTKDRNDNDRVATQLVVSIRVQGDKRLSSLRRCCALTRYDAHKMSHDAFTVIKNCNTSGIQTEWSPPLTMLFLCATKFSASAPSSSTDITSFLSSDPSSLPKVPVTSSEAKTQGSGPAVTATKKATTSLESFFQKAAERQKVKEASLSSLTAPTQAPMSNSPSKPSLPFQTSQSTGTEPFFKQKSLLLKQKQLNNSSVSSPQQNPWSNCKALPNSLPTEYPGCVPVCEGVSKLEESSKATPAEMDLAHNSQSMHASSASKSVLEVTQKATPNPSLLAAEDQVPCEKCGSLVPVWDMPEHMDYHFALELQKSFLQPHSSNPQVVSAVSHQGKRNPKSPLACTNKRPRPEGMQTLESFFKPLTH
Outline: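 Pol eta (10 nM) was preincubated with compounds for 15 min at room temperature, after which fluorescent replication substrate (50 nM final) was added to start the reaction. Fluorescence was read kinetically at 0 and 10 min.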
% is scaled to controls: 0 for no effect and ±100 for the full control effect; potency is read from the fitted curve at half-maximal effect.

| Compound | activity change, negative = inhibition | Potency |
| --- | --- | --- |
| CC1=C(/C=C/C(C)=C/C=C/C(C)=C\C(=O)O)C(C)(C)CCC1 | inactive: -4.81% | – |
| CC(/C=C1\SC(=S)N(C(C(=O)O)c2ccccc2)C1=O)=C\c1ccccc1 (stereo not drawn) | – | active: 89.1 µM |
| C/C(=C\c1ccc(C(=O)O)cc1)c1ccc2c(c1)C(C)(C)CCC2(C)C | inactive: -5.95% | – |
| CCc1ccc(CNCc2ccc(OCC(O)CN(C)Cc3ccccc3)cc2)nc1 (stereo not drawn) | inactive: 32.2% | – |
| CC(/C=C/c1ccccc1)=N\Nc1nc2c(c(=O)[nH]c(=O)n2C)n1CCO | inactive: 36.1% | – |
| COC/C=C/C1=CC2=CC(=O)C(C)(OC(=O)c3cnc4ccccc4n3)C(=O)C2=CN1Cc1ccc(OC)cc1 (stereo not drawn) | – | active: 28.2 µM |
| COc1ccc(OCc2nc(N)nc(Nc3ccccc3)n2)cc1 | inactive: 4.36% | – |
| O=C(C1=C[C@H](c2ccc(C(F)(F)F)cc2)C[C@H](OCCCCO)O1)N1CCN(Cc2ccccc2)CC1 | inactive: -23.1% | – |
| COC(=O)c1ccccc1NC(=O)c1cc2ncc(Br)cn2n1 | – | active: 7.08 µM |
| CCOc1ccccc1CNCCNC(=O)c1nonc1N | inactive: -7.67% | – |
| N#C/C(=C\c1ccc(O)c(O)c1)C(=O)NCc1ccccc1 | inactive: -24.4% | – |
| CCOc1ccc(-n2ccnc2SCC(=O)Nc2nc3ccc(C)cc3s2)cc1 | – | active: 89.1 µM |
| C/C(=N\NC(=O)c1cc(-c2cccc([N+](=O)[O-])c2)n[nH]1)c1ccccc1O | – | active: 8.91 µM |
| Cc1ccc(N(C(=O)C2CCC(=O)N2)C2(C(=O)NC3CCCCC3)CCCCC2)cc1 (stereo not drawn) | inactive: 6.22% | – |
| C[C@H]1CN([C@@H](C)CO)C(=O)CCCn2nncc2CO[C@H]1CN(C)C(=O)Nc1cccc(Oc2ccccn2)c1 | inactive: -4.2% | – |
| CC(=O)Nc1ccc(NC(=O)Cc2ccc(S(=O)(=O)N3CCCCC3)s2)cc1 | – | active: 12.6 µM |
| CN=c1scc(C)n1/N=C/c1ccc(O)c(O)c1O | – | active: 3.55 µM |
| Cc1ccc(NC(=O)CCCn2c(=O)c3cccn3c3cccnc32)c(Cl)c1 | inactive: 19.7% | – |
| CCc1nnc(NC(=O)c2sc3nc4c(cc3c2N)CCCCCC4)s1 | – | active: 39.8 µM |
| CC(=O)C(=Cc1ccc(C(=O)O)cc1)C(C)=O | – | active: 39.8 µM |
| Cc1ccc(-c2nn(CCC(=O)O)cc2/C=C\C(=O)c2ccc(Br)cc2)cc1 | – | active: 79.4 µM |
| CSc1ccc(/C=C(/NC(=O)c2ccc(C)cc2)C(=O)Nc2cccc(C)c2)cc1 | inactive: 5.76% | – |
| C=CCOC(=O)C1=C(C)NC(SCC(=O)OCC)=C(C#N)C1c1ccc(C)cc1 (stereo not drawn) | – | active: 17.8 µM |
| Cc1ccc(S(=O)(=O)N2CCCCC2)cc1NC(=O)Cn1ncc(Cl)c(Cl)c1=O | – | active: 56.2 µM |

| Compound | activity change, negative = inhibition | Potency |
| --- | --- | --- |
| Cc1cc(C)nc(NS(=O)(=O)c2ccc(N/C=C\C(=O)c3ccc(Cl)cc3)cc2)n1 | inactive: -18.1% | – |
| O=C(NCCO)C(=O)c1c(-c2ccc(Cl)cc2)cc2ccccn12 | inactive: -19% | – |
| CSc1cccc(NC(=O)/C=C/c2ccco2)c1 | – | active: 79.4 µM |
| Cc1ccc(C)c(NC(=O)Nc2csc3c2CCCC3)c1 | inactive: 16.6% | – |
| Cc1ccc(/C=C2\C(=O)ON=C2c2ccccc2)o1 | inactive: -4.19% | – |
| O=C1CC(=O)N(CCc2ccc(F)cc2)C(=O)N1 | inactive: -2.18% | – |
| Cn1c(=O)c(=O)n(C)c2cc(S(=O)(=O)N3CCN(c4ccc(F)cc4)CC3)ccc21 | inactive: 0.119% | – |
| CCCCCCCCCCCCC/C=C/[C@@H](O)[C@@H](N)CO | inactive: -16.3% | – |
| Cc1cc(OCC(=O)NCCO)cc(C)c1Cl | inactive: -1.03% | – |
| Cc1ccc(C(=O)Nc2cccc(O)c2)cc1S(=O)(=O)N1CCCCCC1 | inactive: -13.2% | – |
| O=C(COc1ccc(F)cc1)Nc1nc(-c2cccnc2)cs1 | – | active: 35.5 µM |
| CC(C1SC(=S)NC1=O)C1SC(=S)NC1=O (stereo not drawn) | – | active: 5.01 µM |
| COc1ccc(/C=N/NC(=O)Cc2n[nH]c(=O)[nH]c2=O)cc1 | inactive: 17.7% | – |
| Cn1ccc2cc3c(cc21)CCN3C(=O)Nc1cccnc1 | inactive: -6.31% [at 57.1 µM] | – |
| O=S(=O)(NCCS(=O)(=O)N1CCN(c2ccccc2)CC1)c1ccc(Br)cc1 | inactive: 17.6% | – |
| COc1ccc(CNC(=O)c2cc3c(=O)n(Cc4ccco4)ccc3nc2C)cc1 | inactive: 14.8% | – |
| O=c1[nH]c2ccsc2c(=O)n1CCO | inactive: 40.7% | – |
| Cc1cccc(C(=O)NCN2CCN(c3ccccc3C#N)CC2)c1 | inactive: -15.2% | – |
| CCO[C@H]1OC(C(=O)N2CCN(Cc3ccc4c(c3)OCO4)CC2)=C[C@@H](c2ccc(Br)cc2)[C@@H]1CCCO | inactive: -3.56% | – |
| O=C1/C(=C/c2ccco2)SC(=S)N1c1cccnc1 | – | active: 2.82 µM |
| Cc1nnc(SCC2=C(C(=O)O)N3C(=O)C(NC(=O)Cn4nc(C(F)F)cc4C)C3SC2)s1 (stereo not drawn) | – | active: 8.91 µM |
| Cc1ccnn1CC(=O)N/N=C/c1ccc([N+](=O)[O-])s1 | inactive: 22.7% | – |
| CC1(C)CCC2=C(O1)c1ccccc1C(=O)C2=O | – | active: 22.4 µM |
| Cc1cc(C)n(NC(=S)NC2CCCCC2)c(=O)c1C#N | inactive: 30.8% | – |
